This note sets out measurements from PubChem BioAssay (NCI).

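Each compound was tested at five concentrations against cells in 96-well plates for 48 hours. Here, GI50 denotes the concentration required for 50% inhibition of growth.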 Not every entry of the source has a single result; some have several. Only these are listed. There may be further records. Records of one sample usually come from different ranges of test concentrations, which the source does not state; some values may only mark the edge of a range. Brackets tell where a record comes from. Letters hold for one entry only.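 TGI marks complete inhibition of growth.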

The test has as its system MDA-MB-468 breast. In words: DTP human tumour cell line panel, 48 h.

Regarding `Cc1nc(Nc2ncc(C(=O)Nc3c(C)cccc3Cl)s2)cc(N2CCN(CCO)CC2)n1`, the GI50 is 86 nM [sample A, 1 test] and 94 nM [sample A, mean of 2 tests] and 865 nM [sample B, mean of 2 tests] and 335 nM [sample C, mean of 2 tests]; the TGI is 1.25 µM [sample A, 1 test] and 1.34 µM [sample A, mean of 2 tests] and 7.84 µM [sample B, mean of 2 tests] and 3.97 µM [sample C, mean of 2 tests].
